In the supplement of paper PMC10126150:
Sequences with one replicate were seen in a single cluster, so their values are uncertain.

System: ATP
Experiment: switch fluorescence ratio, 500 uM ATP over buffer (Cy3 cluster intensity, sum of 5 cycles each) (fold (ratio)); higher = stronger signal-on switching upon ATP binding; sequences stand for … in TCGTCGGCAGCGTCAGATGTGTATAAGAGACAGTTTTTTTTTTTTTTTTTTTTTTTTT…TC
Conditions: aptamer strand: ATP DNA aptamer (quencher-CACCTGGGGGAGTATTGCGGAGGAAGG + anchor), 100 nM annealed; ATP concentration: 500 uM; one replicate
Procedure, shortened: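 Five buffer/ATP imaging cycles were run on Cy3-labelled switching-strand clusters on a modified Illumina MiSeq flow-cell, with NaOH stripping and re-annealing between cycles. In each cycle, clusters annealed to 100 nM quencher-labelled ATP aptamer were imaged in selection buffer, then after 15 min with 500 uM ATP at 22 °C. Per cluster, the fluorescence ratio is summed target-cycle over summed buffer-cycle Cy3 intensity, averaged per switch-domain sequence. Only clusters within 100-1000 RFU were kept.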
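Also: ATP exposure 15 min at 22 °C before imaging.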

Sequence	switch fluorescence ratio
TAATCAGGGA	1.03
CGATAGTGCG	0.947
CAGATCTAAC	0.994
CGAGCTACAT	1.13
CTTACATGCT	0.965
CTGGTAGTTA	1.03
CCGGGCGCGG	1
CTCATGTTT	0.962
TGGCCTTTAA	0.991
TCGCAAATAT	4.38
GTATTGTTGG	0.955
ATAATGTTGA	1
ACCTGGGATT	1
ATAGTCAGCA	0.998
ATATAGAACG	1.04
TCTGTATGTG	0.992
AAGTCTTCAA	0.975
GAGGTTTTAG	0.965
AGTGAACAT	0.999
TTCCCCGACA	1.57
AAAGCCAGGA	1.08
ATTCGTTCAA	0.963
ATCGGCTTGT	0.984

Sequence	switch fluorescence ratio
TGAGGATTTC	0.949
CGAAGCTCGG	1.08
GCCGACTAGG	1.03
GGAATGGTGA	1.04
GCCATGCGGC	0.991
CTTTTAAGCG	1.01
CGCCCTGGTC	1.39
CGGATCCAAA	1.03
TCTATACAAA	0.941
CAAATTCGGA	1.01
GGCCCGTGGG	0.929
CACGCGCTCT	0.982
AAACTTACGG	1.32
CTTGTGAGTG	0.986
TCTTTATCG	0.997
GAGAAAAGGT	0.957
ACACGGGGTC	1.02
TAGATGTACT	1
TAAGGGGCCG	1.11
GGACGTCAAG	1
TTTAATGT	0.976
AGGTGGGTGA	1
TCATTGTTGA	0.994

Sequence	switch fluorescence ratio
CCGGCTGTGT	1.03
ACGGTATGGT	1.09
ATTGAATAAG	0.965
GATGCTTGAT	1.08
ATCCCCATCG	1.04
GTTAGGTGGT	1.17
CGGTAAAAAC	0.951
GCAACAGTTT	0.997
ATTTTTTCGG	0.959
TAGCAAGAGT	1.54
AGTAACATAA	1.01
ATTATTTGTG	0.976
GTTCAGACCA	1
GTTGGTAAGT	1.01
AGGGAACAGC	0.969
ACCAATGTAT	0.976
GAAACTAGAA	0.995
TAGGGCTAAG	1.04
GCCGTCTATC	0.989
ACATGGCCTT	1.03
TGGTGACTTT	0.982
TTGCGTTGGT	0.992
AACATGTTTT	1.05

Sequence	switch fluorescence ratio
CGTTGTACCT	1.13
CTCCTGTCTG	1.03
ACCTAACGTC	1.34
ATTTTGCACC	1.01
AGTGAAAACG	1.04
AGTCGTGACT	1.01
CGTTTGTTTC	0.974
GACAGACTCT	1.05
GTTCGGGTGG	1.04
ATAAAAAGCG	1.02
ACTCGAGTTA	0.988
TTCATACGTG	0.957
CAGAGCCAGC	0.897
CAATCTATTA	0.997
GCGTTTCAGA	1
TAGGCCTGTG	0.963
TTAAGGGGTG	1.02
AGAGTGGTT	0.976
CCCAGAGAGA	1.02
CTTGATTAGT	1.02
GTTCTTGTGC	0.954
TAGATGGCTC	0.995
TTAAATTGTG	0.981

Sequence	switch fluorescence ratio
CTTAACTATA	1.03
GGGGAGCGG	1.02
AAGAATTTTA	1.03
GGGAGGGTAC	1.48
ATCTCAAATA	1.01
CTGAGTTGAA	0.981
TCTGTTATGT	1.03
TGCCAAGAGT	1.05
AGCTACTCAC	2.22
CCCCGGGATT	1.14
GGTAGCATTG	1.01
TTCGTATCGT	1.01
TTAGCACTGC	2.78
TCGGCAAACT	3.22
AAGTACACGT	1.09
CATGGACCCG	0.967
CTTAATACTA	1.01
TTGTGTGCGT	0.971
CCCGGGAGAT	1.01
TTCCGGAAA	0.968
GAAGCGAGAG	2.2
CCGATAGACG	0.999
AGATATAAAA	1.02

Sequence	switch fluorescence ratio
CAACTTGCGG	1.03
CACTCACGAC	1.36
CTTTCAACTA	0.962
GATATAACGT	1.01
GAATAGAAGC	0.974
GTTATGTGGA	0.976
TAGCCTGCC	1.41
ACGAGAAAAG	0.998
TTTGGCGCAG	1
ATTTAGCGTA	1.07
AGGGTGGGAT	0.996
GTTTCTTCTC	1
TCTAGCCCGT	0.973
TTGTCTTTA	0.996
CTTGGCTTAC	1.05
TTACTTAACG	1.34
AAGGAAGTAA	1.04
CTGGAATATG	1.18
AACCAACGAT	1.39
GCTGTAAGTG	0.975
TTCAGACCCT	1.01
GAGTAGCTAG	0.952
GTTGCGGAAC	1

Sequence	switch fluorescence ratio
TAAAGCGAGA	1.02
CCTTGTCAAA	1.13
TTTGCGGCG	1.01
TTAGACACGT	1.03
CCCGCGCGGA	1.48
GGGGTAGAGC	0.972
CAATGGCCTT	1.04
AAGGAGCATC	1.08
TTTGAATATC	1.09
GACGCAATCA	2.45
CATATGCGGT	1.01
CTATATGGGG	0.98
TTATCGATCG	1
ACAGGGTGAA	1.01
AAGTTGTAC	1.26
TCCAACACGG	1.01
TTCATTGTCT	0.949
CATCATAGTC	1.18
TAGGCACGCA	1.07
